Data published in a collection of fitness landscapes (doi:10.1126/science.1257360).
This is one part of the list.

B1: PhoQ; a variant is named by its letters at X, in order, P23837 (parent)
chain: MKKLLRLFFPLSLRVRFLLATAAVVLVLSLAYGMVALIGYSVSFDKTTFRLLRGESNLFYTLAKWENNKLHVELPENIDKQSPTMTLIYDENGQLLWAQRDVPWLMKMIQPDWLKSNGFHEIEADVNDTSLLLSGDHSIQQQLQEVREDDDDAEMTHSVAVNVYPATSRMPKLTIVVVDTIPVELKSSYMVWSWFIYVLSANLLLVIPLLWVAAWWSLRPIEALAKEVRELEEHNRELLNPATTRELTSLVRNLNRLLKSERERYDKYRTTLTDLTHSLKTPLXXLQXXLRSLRSEKMSVSDAEPVMLEQISRISQQIGYYLHRASMRGGTLLSRELHPVAPLLDNLTSALNKVYQRKGVNISLDISPEISFVGEQNDFVEVMGNVLDNACKYCLEFVEISARQTDEHLYIVVEDDGPGIPLSKREVIFDRGQRVDTLRPGQGVGLAVAREITEQYEGKIVAGESMLGGARMEVIFGRQHSAPKDE

Variants of: B1
Assay: enrichment ratio after two sorts for PhoP signalling (ratio (wild type AVST 3.29)); higher = more functional
Conditions: with PhoP (E. coli)

Row | Variant | enrichment ratio
1 | TKAC | 7.59
2 | DQWG | ≤ 0.25
3 | PMGW | ≤ 0.25
4 | AVMD | ≤ 0.25
5 | KFIE | ≤ 0.25
6 | LNCV | ≤ 0.25
7 | QAAQ | ≤ 0.25
8 | KKVR | ≤ 0.25
9 | VIFS | ≤ 0.25
10 | RRFD | ≤ 0.25
11 | FRRD | ≤ 0.25
12 | IKWH | ≤ 0.25
13 | TEVK | 2.74
14 | PKQG | ≤ 0.25
15 | MPFT | ≤ 0.25
16 | PEHF | ≤ 0.25
17 | RKQN | ≤ 0.25
18 | MRYR | ≤ 0.25
19 | YHAV | ≤ 0.25
20 | HACF | ≤ 0.25
21 | KKTW | ≤ 0.25
22 | RSCF | ≤ 0.25
23 | RTTY | ≤ 0.25
24 | PCNE | ≤ 0.25

Row | Variant | enrichment ratio
25 | KSVI | ≤ 0.25
26 | VPAG | ≤ 0.25
27 | KQFM | ≤ 0.25
28 | WWPM | ≤ 0.25
29 | GPGN | ≤ 0.25
30 | QFSE | ≤ 0.25
31 | YDTR | ≤ 0.25
32 | HDQN | ≤ 0.25
33 | RGGL | ≤ 0.25
34 | RDIE | ≤ 0.25
35 | ICHL | ≤ 0.25
36 | ARAH | ≤ 0.25
37 | NTEY | ≤ 0.25
38 | IGDY | ≤ 0.25
39 | YCDM | ≤ 0.25
40 | NMPD | ≤ 0.25
41 | LVGM | ≤ 0.25
42 | FGDL | ≤ 0.25
43 | DRCS | ≤ 0.25
44 | HYWK | ≤ 0.25
45 | YCHP | ≤ 0.25
46 | SLIH | ≤ 0.25
47 | SLKG | ≤ 0.25
48 | PLEA | ≤ 0.25

Row | Variant | enrichment ratio
49 | ARMR | ≤ 0.25
50 | WRPL | ≤ 0.25
51 | LKKF | ≤ 0.25
52 | RQPP | ≤ 0.25
53 | VPSV | ≤ 0.25
54 | STEP | ≤ 0.25
55 | HEYH | ≤ 0.25
56 | QTQK | ≤ 0.25
57 | KMKY | ≤ 0.25
58 | TLIY | ≤ 0.25
59 | WNYA | ≤ 0.25
60 | ASQA | ≤ 0.25
61 | VGSC | ≤ 0.25
62 | GTLA | 6.81
63 | QKRL | ≤ 0.25
64 | EYRY | ≤ 0.25
65 | WDDE | ≤ 0.25
66 | WCWP | ≤ 0.25
67 | FISV | ≤ 0.25
68 | GYYV | ≤ 0.25
69 | IERS | ≤ 0.25
70 | YNYL | ≤ 0.25
71 | PIRM | ≤ 0.25
72 | MTKY | ≤ 0.25

Row | Variant | enrichment ratio
73 | VHEC | ≤ 0.25
74 | PVEM | ≤ 0.25
75 | KGGI | ≤ 0.25
76 | GWRI | ≤ 0.25
77 | PVTL | ≤ 0.25
78 | MMGS | ≤ 0.25
79 | THNK | ≤ 0.25
80 | HEVM | 24.4
81 | INEN | ≤ 0.25
82 | IKVY | ≤ 0.25
83 | AKSL | 7.13
84 | RAGE | ≤ 0.25
85 | HVSH | ≤ 0.25
86 | WHRA | ≤ 0.25
87 | YNQG | ≤ 0.25
88 | HRPC | ≤ 0.25
89 | NGIW | ≤ 0.25
90 | QSMM | ≤ 0.25
91 | MGMG | 42.5
92 | EMIW | ≤ 0.25
93 | NTRV | ≤ 0.25
94 | EMFW | ≤ 0.25
95 | PVWY | ≤ 0.25
96 | AICE | 14.2

Row | Variant | enrichment ratio
97 | WRHC | ≤ 0.25
98 | RIPW | ≤ 0.25
99 | KTPP | ≤ 0.25
100 | PKTK | ≤ 0.25
101 | FDKY | ≤ 0.25
102 | YHNR | ≤ 0.25
103 | ADNM | ≤ 0.25
104 | TGGR | ≤ 0.25
105 | FDYV | ≤ 0.25
106 | EMVG | ≤ 0.25
107 | YLHD | ≤ 0.25
108 | DKFM | 0.939
109 | YCGD | ≤ 0.25
110 | TIIR | ≤ 0.25
111 | SWEY | ≤ 0.25
112 | LWET | ≤ 0.25
113 | QSSN | 4.53
114 | DVMD | ≤ 0.25
115 | HDEN | ≤ 0.25
116 | DAGC | ≤ 0.25
117 | TEGN | 2.9
118 | MKTG | ≤ 0.25
119 | MDIC | ≤ 0.25
120 | GLQK | ≤ 0.25

Row | Variant | enrichment ratio
121 | WQMK | ≤ 0.25
122 | LQQW | ≤ 0.25
123 | VSYV | ≤ 0.25
124 | WLVA | ≤ 0.25
125 | AKCC | 15.2
126 | WSLH | ≤ 0.25
127 | SGVM | 13.3
128 | EGAT | ≤ 0.25
129 | AHPG | ≤ 0.25
130 | HWAC | ≤ 0.25
131 | WEGM | ≤ 0.25
132 | DDCN | ≤ 0.25
133 | HHVP | ≤ 0.25
134 | RFWS | ≤ 0.25
135 | HTLN | ≤ 0.25
136 | YFVE | ≤ 0.25
137 | MQTT | ≤ 0.25
138 | QQCH | ≤ 0.25
139 | HSKL | ≤ 0.25
140 | ICPM | ≤ 0.25
141 | LITD | ≤ 0.25
142 | RGES | ≤ 0.25
143 | WDGD | ≤ 0.25
144 | HDQR | ≤ 0.25

Row | Variant | enrichment ratio
145 | IMTT | ≤ 0.25
146 | KPMV | ≤ 0.25
147 | NEWG | ≤ 0.25
148 | HKSY | ≤ 0.25
149 | HYRF | ≤ 0.25
150 | RHAN | ≤ 0.25
151 | AFWQ | ≤ 0.25
152 | SFLE | ≤ 0.25
153 | MPMF | ≤ 0.25
154 | YTYY | ≤ 0.25
155 | LSMP | ≤ 0.25
156 | FPVA | ≤ 0.25
157 | SGGV | 10.5
158 | INIM | ≤ 0.25
159 | VMED | ≤ 0.25
160 | LHYM | ≤ 0.25
161 | WIPI | ≤ 0.25
162 | IHDD | ≤ 0.25
163 | STKR | ≤ 0.25
164 | IGHL | ≤ 0.25
165 | VESE | ≤ 0.25
166 | SLQP | ≤ 0.25
167 | KSSP | ≤ 0.25
168 | VYNE | ≤ 0.25

Row | Variant | enrichment ratio
169 | WPMP | ≤ 0.25
170 | QERL | ≤ 0.25
171 | FLEH | ≤ 0.25
172 | HPHS | ≤ 0.25
173 | ELCR | ≤ 0.25
174 | IKWE | ≤ 0.25
175 | KTSM | ≤ 0.25
176 | WLMI | ≤ 0.25
177 | ESCW | ≤ 0.25
178 | VPSK | ≤ 0.25
179 | KHWR | ≤ 0.25
180 | FVHK | ≤ 0.25
181 | WTAR | ≤ 0.25
182 | TNQV | 47.4
183 | CVPS | ≤ 0.25
184 | INHD | ≤ 0.25
185 | ENER | ≤ 0.25
186 | FWMM | ≤ 0.25
187 | FAGY | ≤ 0.25
188 | FKDA | ≤ 0.25
189 | LGDY | ≤ 0.25
190 | ACMF | 14.4
191 | VRVI | ≤ 0.25
192 | IGKM | ≤ 0.25

Row | Variant | enrichment ratio
193 | YAYF | ≤ 0.25
194 | TMGI | 20.6
195 | LQMF | ≤ 0.25
196 | VEMQ | 1.65
197 | MMRR | ≤ 0.25
198 | DMCH | ≤ 0.25
199 | MNAY | 17
200 | APTV | ≤ 0.25
201 | EHIY | ≤ 0.25
202 | IHEH | ≤ 0.25
203 | GWYY | ≤ 0.25
204 | FTAI | ≤ 0.25
205 | QCPT | ≤ 0.25
206 | TVSA | 10.2
207 | VCTA | ≤ 0.25
208 | KVNK | ≤ 0.25
209 | NDMN | ≤ 0.25
210 | DDGW | ≤ 0.25
211 | LWWK | ≤ 0.25
212 | VQTD | ≤ 0.25
213 | ISFH | 0.373
214 | VHFQ | ≤ 0.25
215 | PIDH | ≤ 0.25
216 | QMRL | ≤ 0.25

Row | Variant | enrichment ratio
217 | YAYN | ≤ 0.25
218 | LTIV | ≤ 0.25
219 | FCIE | ≤ 0.25
220 | IFSL | 0.302
221 | YGFY | ≤ 0.25
222 | ENAR | ≤ 0.25
223 | KGPD | ≤ 0.25
224 | LDNI | ≤ 0.25
225 | NLCL | 0.966
226 | PKAE | ≤ 0.25
227 | FRRW | ≤ 0.25
228 | IHRD | ≤ 0.25
229 | YWWD | ≤ 0.25
230 | YRSA | ≤ 0.25
231 | YSVY | 0.45
232 | TPIC | ≤ 0.25
233 | DFWW | ≤ 0.25
234 | GGAN | ≤ 0.25
235 | RTKV | ≤ 0.25
236 | KDPD | ≤ 0.25
237 | EDTF | ≤ 0.25
238 | SPNA | ≤ 0.25
239 | TDTH | 8.19
240 | WRYD | ≤ 0.25

Row | Variant | enrichment ratio
241 | LAIM | ≤ 0.25
242 | AQKD | ≤ 0.25
243 | RWML | ≤ 0.25
244 | ACIP | ≤ 0.25
245 | DKVS | ≤ 0.25
246 | DTLT | ≤ 0.25
247 | WKLM | ≤ 0.25
248 | GNQA | ≤ 0.25
249 | ESYN | ≤ 0.25
250 | SHRA | ≤ 0.25
251 | WDSL | ≤ 0.25
252 | IMIS | ≤ 0.25
253 | IHPP | ≤ 0.25
254 | IPDM | ≤ 0.25
255 | SIIL | ≤ 0.25
256 | ACVK | ≤ 0.25
257 | KIMF | ≤ 0.25
258 | NTFA | ≤ 0.25
259 | QACH | ≤ 0.25
260 | NKRQ | ≤ 0.25
261 | KLRC | ≤ 0.25
262 | KERW | ≤ 0.25
263 | TRCE | ≤ 0.25
264 | LNHR | ≤ 0.25

Row | Variant | enrichment ratio
265 | WDRD | ≤ 0.25
266 | TGND | ≤ 0.25
267 | TKPW | ≤ 0.25
268 | KISP | ≤ 0.25
269 | RNWS | ≤ 0.25
270 | WTSP | ≤ 0.25
271 | EGPW | ≤ 0.25
272 | APVF | ≤ 0.25
273 | IAAS | ≤ 0.25
274 | KPLE | ≤ 0.25
275 | MMCR | ≤ 0.25
276 | YICQ | 0.338
277 | MDWS | ≤ 0.25
278 | IYLF | ≤ 0.25
279 | SSIE | ≤ 0.25
280 | KRFA | ≤ 0.25
281 | SWCA | ≤ 0.25
282 | KFYF | ≤ 0.25
283 | TSNT | 11.9
284 | SGTT | 8.51
285 | THRF | ≤ 0.25
286 | THDV | ≤ 0.25
287 | GTFM | ≤ 0.25
288 | ERGL | ≤ 0.25

Row | Variant | enrichment ratio
289 | YSYC | ≤ 0.25
290 | QGIY | ≤ 0.25
291 | FDQL | ≤ 0.25
292 | ETLT | ≤ 0.25
293 | MIHM | 4.4
294 | HSWR | ≤ 0.25
295 | GFFR | ≤ 0.25
296 | SMWK | ≤ 0.25
297 | ANFS | ≤ 0.25
298 | GGDQ | ≤ 0.25
299 | DWEV | ≤ 0.25
300 | RVQC | ≤ 0.25
301 | RTIE | ≤ 0.25
302 | SCWH | ≤ 0.25
303 | GWLR | ≤ 0.25
304 | IGPP | ≤ 0.25
305 | KEGV | ≤ 0.25
306 | KQAW | ≤ 0.25
